# Measurements as given in PubChem BioAssay AID493208 (National Center for Advancing Translational Sciences (NCATS), 2011).
# Among all 44,000 compounds or so, about 340 (0.77%) were called active. About 5% were inconclusive and are not listed. Calls follow the shape of the dose curve; as a rule, active = well fitted inhibition curve with a large enough effect; inconclusive = small, poorly fitted or top-dose-only effect; inactive = flat fitted curve, though single readings scatter. The list shows a part of the results.
# Assay: Acumen qHTS Assay for Inhibitors of the mTORC1 Signaling Pathway in MEF (Tsc2-/-, p53-/-) Cells: Sytravon; also: nearly all actives have a fitted effect of over 50% in size;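 as to activity change, negative = inhibition: plate controls were DMSO for no effect and rapamycin for full effect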
# Conditions: phospho-rpS6 immunofluorescence/PI, 24 h; series mostly up to 38.3 µM; activity change, negative = inhibition: at the top concentration
# Summary of the method: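 Tsc2-/-, p53-/- MEFs (empty-vector stable line) in DMEM + 10% FBS were treated with compounds 24 h at 37 degree Celsius, fixed, and immunostained for phospho-rpS6 (Alexa-488) with propidium iodide counterstain. Laser-scanning cytometry gave % positive cells, normalized against 7.5 nM rapamycin and DMSO.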
# Potency is read from the fitted curve at half-maximal effect.
Structure (SMILES),"activity change, negative = inhibition",Potency
Cc1noc2ncnc(NCc3cccc(Cl)c3)c12,inactive: 4.64%,–
Cc1c(C(=O)N2CCC(C(=O)Nc3ccc(F)cc3)CC2)sc2nc[nH]c(=O)c12,inactive: -2.44%,–
Oc1cccc(Nc2ncnc3sc4c(c23)CCCC4)c1,inactive: 7.97%,–
CS(=O)(=O)N1CCc2cc(C(=O)NCc3ccccc3)ccc21,inactive: 2.58%,–
CC(C)(C)C(=O)N1CCN(c2nc3c(F)cccc3s2)CC1,inactive: -0.965%,–
CCOc1ccc(-n2c(SCC(=O)N3CCCCC3)nc3c([nH]c4ccccc43)c2=O)cc1,inactive: -0.326%,–
COc1cc(C(=O)Nc2ccc3nc(SCc4ccc(C)cc4)sc3c2)cc(OC)c1OC,inactive: -3.27%,–
CC(=O)c1ccc(S(=O)(=O)Nc2cccc(-c3ccc(N4CCCCCC4)nn3)c2)cc1,inactive: -7.65%,–
CCCC(=O)N1CCN(c2nc3c(OC)ccc(C)c3s2)CC1,inactive: -3.09%,–
CC(C)(C)OC(=O)N1CCC(c2c(C(=O)N3CCN(C(=O)c4ccco4)CC3)cnn2-c2cccc(F)c2)CC1,inactive: 0%,–
CCOc1ccc(-n2c(SCC(=O)N3CCOCC3)nc3c([nH]c4ccccc43)c2=O)cc1,inactive: 4.36%,–
Cc1ccc(C)c(Nc2nnc(-n3nc(C)cc3C)c3ccccc23)c1,inactive: -9.92%,–
O=C(Nc1cccc(F)c1)c1ccc2snnc2c1,inactive: -5.12%,–
CCN(c1ccccc1)S(=O)(=O)c1nnc(NC(=O)c2cccs2)s1,inactive: 2.98%,–
Cc1ccc(-n2nc(C(=O)N3CCC(C)CC3)c(=O)n(C)c2=O)cc1,inactive: -4.81%,–
Cc1ccc(CNC(=O)C(CC(C)C)NS(=O)(=O)c2ccc3c(c2)oc(=O)n3C)cc1 (stereo not given),inactive: -1.06%,–
O=C(NCc1ccc(Cl)cc1)c1cnc(N2CCCCC2)c2ccccc12,inactive: -0.676%,–
Cc1cccc(N2CCN(CCNC(=O)C3COc4ccccc4C3)CC2)c1C (stereo not given),inactive: -19.3%,–
O=C(O)c1cc(-n2c(/C=C\c3ccc(F)cc3)nc3ccccc3c2=O)ccc1Cl,inactive: 9.54%,–
Cc1ccc(S(=O)(=O)NCCS(=O)(=O)N2CCN(c3ccccc3)CC2)cc1,inactive: 0.666%,–

Structure (SMILES),"activity change, negative = inhibition",Potency
COc1ccc(CNC(=O)C2CCN(Cc3nc(-c4ccc(Cl)cc4)oc3C)CC2)cc1,inactive: -6.71%,–
Cc1nc(N2CCOCC2)c2c(C(=O)Nc3cccc(C(F)(F)F)c3)c(C)oc2n1,inactive: 5.72%,–
Cc1ccc(Cc2nc3ccccc3nc2SCC(=O)Nc2ccc3c(c2)OCO3)cc1,inactive: 0.0901%,–
CSc1ccc(CCNC(=O)CCc2c(C)nc3c(c(C)nn3-c3ccccc3)c2C)cc1,inactive: -20%,–
O=C(NC1CC(=O)N(c2cccc(F)c2)C1)c1ccc(Br)o1 (stereo not given),inactive: -0.213%,–
CC(=O)c1ccc(NC(=O)CCSc2nc(-c3ccco3)cc(C(F)(F)F)n2)cc1,inactive: -19.7%,–
Cc1c(S(=O)(=O)c2cccc(Cl)c2)nnn1-c1cccc(C(F)(F)F)c1,inactive: 0.28%,–
COC(=O)c1c(-c2ccc(Cl)cc2)noc1N1CCN(c2ccc(C)cc2C)CC1,inactive: 7.99%,–
CC(C)c1ccc(NC(=O)C2CCCN(S(=O)(=O)c3cccc4cccnc34)C2)cc1 (stereo not given),inactive: -1.74%,–
CCCCN(C)CCCNC(=O)C1CCN(c2nc3ccc(CC)cc3s2)CC1,–,active: 18.5 µM
COc1ccc(OC)c(NC(=O)c2noc3c2CCCC3)c1,inactive: 3.52%,–
CCOC(=O)Cc1ccc(NC(=O)N2CCOc3ccc(C)cc32)cc1,inactive: 8.1%,–
CCOC(=O)c1cc(S(=O)(=O)N2CCN(c3ccccc3)CC2)[nH]n1,inactive: -4.07%,–
CCc1nnc2c3ccccc3nc(Nc3ccc(C(C)=O)cc3)n12,inactive: -1.98%,–
Cc1ccc2nc(N(Cc3cccnc3)C(=O)COc3ccccc3)sc2c1,inactive: -5.08%,–
CCOC(=O)Cn1c(=O)oc2cc(S(=O)(=O)N3CCN(c4cccc(C)c4C)CC3)ccc21,inactive: -9.63%,–
O=C(Nc1c(Cl)cccc1Cl)c1cc(-c2ccc3c(c2)OCO3)on1,inactive: 6.08%,–
Cc1ccc(OC(C)C(=O)Nc2nonc2-c2ccc(Br)cc2)cc1C (stereo not given),inactive: 0.122%,–
Cc1ccc(Nc2c(-c3c[nH]c4ccccc34)nc3cc(C)ccn23)cc1,inactive: 1.74%,–
COc1cc(OC)c(OC)cc1/C=C/c1nc2cc3ccccc3cc2c(=O)n1-c1ccc(Cl)cc1,inactive: 7.78%,–

Structure (SMILES),"activity change, negative = inhibition",Potency
CCOc1ccccc1NC(=O)CSc1nc2c(oc3ccccc32)c(=O)n1-c1ccc(C)c(C)c1,inactive: -7.65%,–
CC(C)OCCCNC(=O)c1ccc2c(c1)N(Cc1c(F)cccc1Cl)C(=O)c1ccccc1S2,inactive: 1.13%,–
COc1ccc(-c2nn3c(=O)cc(CN4CCN(C(=O)c5ccc(C(C)(C)C)cc5)CC4)nc3s2)cc1,inactive: 10.6%,–
CCOC(=O)CC(NS(=O)(=O)c1ccc2[nH]c3c(c2c1)CCCC3)c1ccccc1Cl (stereo not given),inactive: -9.25%,–
COc1ccc(C(=O)NCC(c2cccnc2)N2CCc3ccccc32)cc1 (stereo not given),inactive: 6.87%,–
CCOC(=O)c1c(N)n(-c2ccc(C)c(Cl)c2)c2nc3ccccc3nc12,inactive: 1.63%,–
Cc1ccc(Oc2c(C(F)(F)F)oc3c(CN4CCCCC4C)c(O)ccc3c2=O)cc1 (stereo not given),inactive: -6.98%,–
O=C(CCC1N=C2c3ccccc3N=C(SCc3ccc(F)cc3)N2C1=O)NCc1cccs1 (stereo not given),inactive: -4.4%,–
CC1=C(c2ccc(C)c(C)c2)S(=O)(=O)N(Cc2ccc(C(=O)NCc3cccc(C)c3)cc2)C1=O,inactive: -0.47%,–
Cc1cccc(NC(=O)c2oc3ccccc3c2NC(=O)Cc2coc3c(C)c(C)ccc23)c1,inactive: 1.58%,–
CCC(C(=O)Nc1cc(Cl)ccc1OC)n1nc(-c2ccccc2)ccc1=O (stereo not given),inactive: -0.401%,–
CCOC(=O)C1=C(CS(=O)(=O)c2cccc(C(F)(F)F)c2)NC(=O)NC1c1cccc(OC)c1 (stereo not given),inactive: -18.1%,–
COc1ccccc1CNC(=O)C1CCCN(c2nc3ccccc3n3cccc23)C1 (stereo not given),inactive: 9%,–
COc1ccc(Cl)cc1C(=O)Nc1sc2c(c1C(=O)OC(C)C)CCCC2,inactive: 2.58%,–
O=C(C1CC1)N1CCc2cc(Br)cc(S(=O)(=O)N3CCN(c4cccc(C(F)(F)F)c4)CC3)c21,inactive: 9.29%,–
CCCCOc1ccc(-c2nn(-c3ccccc3)cc2C2NC(=O)NC(C)=C2C(=O)OC)cc1 (stereo not given),inactive: -0.29%,–
CC(=O)N1CCc2cc(Br)cc(S(=O)(=O)N3CCN(c4cccc(C(F)(F)F)c4)CC3)c21,inactive: 2.07%,–
CCCCN(C)c1nc2c(S(=O)(=O)c3ccc(CC)cc3)nnn2c2ccc(Cl)cc12,inactive: 2.78%,–
COc1ccccc1NC(=O)C1=C(C)Nc2c(C(=O)Nc3ccc(F)cc3)cnn2C1c1cccc([N+](=O)[O-])c1 (stereo not given),inactive: 0.0441%,–
COc1cc(C(CC(=O)NCc2ccc(F)cc2)N2Cc3ccccc3C2=O)cc(OC)c1OC (stereo not given),inactive: -1.67%,–
